Data reported in the supplement of paper PMC5499739.
In all, about 16,000 sequences were measured (“Z-score”: median about -0.37, highest 2% from about 3.2 on). The list shows a part of the results.

Each sequence was assayed on RBM10 RRM1-ZnF (GST-tagged construct) (assay: RNAcompete 7-mer binding Z-score; higher = stronger binding preference).
Outline: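 Bound RNA was identified by microarray hybridisation after GST-tagged RBM10 constructs (20 pmol) had been mixed with 1.5 nmol of a designed pool of 241 399 RNAs up to 41 nt, transcribed from microarray-derived DNA templates. Binding ran for 30 min at 4°C in 1 ml Hepes pH 7.8 buffer with KCl, NaCl, glycerol, DTT, BSA and glutathione Sepharose beads, with four 2-min washes at 4°C afterwards. For every heptamer motif, a one-sided Z-score for enrichment was computed across the probes that contained it.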

Sequence	RNAcompete 7-mer binding Z-score
AGGCGAU	0.371
AAACAAC	-0.353
CCCUCGA	-0.75
UACUCUA	-0.558
UGUAUCU	-0.467
UGAACUG	-0.106
UGAAAAG	0.381
AGGCUGG	0.881
CAUACAC	-0.581
CACCCUG	-0.496
AGCCUAU	-0.85
UGUAUGG	1.39
ACCAUUC	-0.912
UAGCAUC	-0.655
UCUUUGC	-0.932
GUCUAGA	-0.233
AGCGGAU	3.22
CGUCACC	-0.366
GUUGCAG	0.355
UAAGUGA	0.4
GAAUUAA	-0.035
CGAUACU	-0.756
CGUCCGC	-0.646

Sequence	RNAcompete 7-mer binding Z-score
UGGUCCA	-0.292
GGCUGGC	0.472
UUUAUUC	-0.85
GCGGUUC	-0.353
CUCUGGA	-0.503
UCAACGC	-0.763
GGUCCGG	0.543
GACCAGG	0.803
GUACAGU	0.128
UUUUCUC	-0.707
UGCGUCU	-0.659
AAUGUGU	0.615
GGAGGCG	2.45
ACAAAGU	-0.123
AAUAGUC	-0.379
GAAGCUG	0.283
CCGGUGA	-0.00896
AAAAUAC	-0.587
ACGCAAG	0.0398
AUGGCUU	-0.0512
AUAGCUG	-0.0252
CGACCAU	-0.902
ACCAUGC	-0.792

Sequence	RNAcompete 7-mer binding Z-score
CCUUUUU	-0.987
ACCACCG	-0.249
UACGAGU	-0.155
UGCUUGA	-0.737
ACUGAAC	-0.48
GCGUUCA	-0.34
CCUUUCA	-0.893
UCCAAGC	-0.698
UCACCGC	-0.711
GUUGGUA	1.64
GGCCACU	-0.561
UAGUUCC	-0.753
UCUGUGG	0.329
AAGUACC	-0.493
UCCCAGG	0.157
CAAUCGG	-0.0187
GCGUUCG	-0.285
GCCUAAA	-0.48
ACUUGCC	-0.954
GAGCAUU	-0.353
AGAACGG	1.53
UGGGAGA	2.78
CGUAACU	-0.633

Sequence	RNAcompete 7-mer binding Z-score
ACGGACA	0.846
AUAACUG	-0.324
CGCGCAU	-0.617
CACGGUU	0.0625
AGUGAAU	0.452
GGUCAAC	0.238
GUUAAAG	0.511
AGUUCUC	-0.746
UACCAUG	-0.597
GGAUGAA	2.16
AUGGCUG	0.657
CGUUAGC	-0.561
AAACGGA	1.5
CGUAGCU	-0.578
UCAUAUU	-0.714
CAUGGCU	-0.21
GGGUAAC	2.4
CCAAGAG	-0.301
GGGCACC	0.904
ACUCGUG	-0.522
UGGUUAC	0.914
GCAUGCC	-0.464
AGCUUAA	-0.574

Sequence	RNAcompete 7-mer binding Z-score
UUGCGAC	-0.516
CCCUAUA	-0.769
CUACCAC	-0.62
CCAGCUC	-0.85
CGGAGAU	1.01
UUGAGUA	0.0138
UGCAGAA	0.105
CACGUAC	-0.438
GCUGUGG	1.12
AGUGUAC	0.14
GUCUACA	-0.477
GCACAAA	-0.519
GGGAAAG	4.79
ACUAUUA	-0.707
UCCAGGU	0.0235
ACAUACC	-0.74
AGACCUG	-0.902
CGACCCA	-0.587
UUUUCUA	-0.662
ACUCGGU	-0.555
AGGAGCG	2.4
AUAGGGG	3.9
CUGAACC	-0.597

Sequence	RNAcompete 7-mer binding Z-score
CAUAUAA	-0.604
GGGUCCU	0.563
GUGAGUG	1.56
CCGUGUC	-0.597
CUUCUAG	-0.746
GCACAAG	0.14
AGCGCUU	-0.6
UAACUCC	-0.711
AUGAUUA	-0.214
CAUUACA	-0.675
AGUUAUC	-0.522
ACUAAAG	-0.0837
CUCUGGG	0.4
AAUCUCA	-0.717
GGUCUGC	0.15
UGCGUAA	-0.243
GAUGCGC	0.251
AAAGCGU	-0.152
AUUUGAA	-0.526
UACCACA	-0.568
AACCAGA	-0.327
AUGUUAU	-0.288
AGAAACG	0.163

Sequence	RNAcompete 7-mer binding Z-score
UCGAAUU	-0.552
UAACGUG	0.108
CGAACCC	-0.659
CGCACUC	-0.506
AUGCAUA	-0.418
GUAACUC	-0.288
AAGAUUA	-0.217
GGCGAGU	1.13
GACUCUU	-0.831
CUGUAAU	-0.61
AUUCACU	-0.707
UGAGGGA	4.02
AUCCCUA	-0.789
GCCAACU	-0.535
CACGAUC	-0.568
AGAGUCU	-0.418
UCUCGUU	-0.678
GGUUGCU	0.54
GACUGGA	1.36
AGUCUGC	-0.646
AUGAAUU	-0.00896
GAAGGGU	4.19
ACGUUCU	-0.808

Sequence	RNAcompete 7-mer binding Z-score
GCCCUGU	-0.399
UUGCAGC	-0.571
CGGGCCC	-0.506
UAGCAGG	1.26
GUAUCUA	-0.37
ACUGCUA	-0.526
GACCUGU	-0.847
GAUGCAG	1
AAUAUGC	-0.415
GGCAACU	-0.0577
GAUUUUA	-0.691
ACCGUAU	-0.746
GCAAUGG	1.63
CUAUCGA	-0.675
UGUAGCG	0.339
AAGAAAG	1.13
ACCGUCA	-0.707
CGAACUG	-0.431
GCCUUGG	0.00404
UCCUGGA	-0.441
CGGGCGC	0.508
GCUACUC	-0.496
